# Out of some 420,000 compounds screened, about 64,000 (15%) were called active. The shares of active, inactive and inconclusive entries below differ from those in the screen. The call rests on the fitted dose curve; in most records, active means well fitted inhibition curve with a large enough effect; inconclusive means small, poorly fitted or top-dose-only effect; inactive means flat fitted curve, though single readings scatter. Potencies of inconclusive entries are left out as doubtful fits.
# Test: qHTS for Inhibitors of human tyrosyl-DNA phosphodiesterase 1 (TDP1): qHTS in cells in absence of CPT; further: nearly all actives have a fitted effect of over 55% in size
# Settings: DT40 Tdp1-/- hTDP1 cells, no CPT, ATP luminescence, 48 h; series mostly up to 46.2 µM
# Method in brief: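 No-CPT arm: Tdp1-/-;hTDP1 DT40 cells (400/well) plus compounds, incubated ≥48 hr at 37 °C. Readout CellTiter-Glo luminescence.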
# Potency means the concentration at half of the fitted maximal effect; tags describe the fitted curve by direction and shape.
row,SMILES,Potency
1,CN(C)c1ccc(C(CNS(=O)(=O)c2ccc([N+](=O)[O-])cc2)N2CCOCC2)cc1 (centres undefined),inactive
2,CCOC(=O)c1c(-c2ccccc2)csc1NC(=O)c1cc(-c2ccc(Br)cc2)on1,inactive
3,Cc1c(CNCCC2=CCCCC2)c(C(=O)O)c(C)n1Cc1ccccc1,"inconclusive [inhibitor, partial curve]"
4,CCOC(=O)C1C(=O)CC(O)(c2ccccc2)CC1c1ccccc1 (centres undefined),"inconclusive [inhibitor, single point]"
5,Cc1nc2ccc(S(=O)(=O)CCC(=O)Nc3ccc(C)c(C)c3)cc2s1,"inconclusive [inhibitor, single point]"
6,CCOc1ccc(C(=O)C(C)OC(=O)CN2C(=O)NC(C)(C)C2=O)cc1 (centres undefined),"inconclusive [inhibitor, single point]"
7,Cc1ccn2c(/C=N/OCc3ccc(F)cc3)c(-c3ccc(Cl)cc3)nc2c1,"inconclusive [inhibitor, single point]"
8,Cc1ccc(S(=O)(=O)N2CCCOC2CNC(=O)C(=O)NCc2ccco2)cc1 (centres undefined),inactive
9,CCc1cc(Cn2nc(-c3ccccc3)cc2C(=O)NCc2ccc(C)cc2)on1,"inconclusive [inhibitor, single point]"
10,CCOc1ccc(CCNC(=O)CCc2c(C)nc3c(-c4ccccc4)c(C)nn3c2C)cc1OCC,"inconclusive [inhibitor, full curve]"
11,O=[N+]([O-])c1cc(Cl)cc2c1nc(NCCO)c1ccccc12,"inconclusive [inhibitor, single point]"
12,COc1cc(/C=C2\CCc3c2nc2ccccc2c3C(=O)O)cc(OC)c1OC,inactive
13,COc1cccc(/C=N/NC(=O)c2cccc([N+](=O)[O-])c2)c1OS(=O)(=O)c1ccc(C)cc1,"inconclusive [inhibitor, single point]"
14,O=C(COC(=O)c1cccs1)Nc1nc(-c2ccccc2)cs1,"inconclusive [inhibitor, partial curve, poor fit]"
15,CC(=O)N1N=C(c2ccncc2)CC1c1ccccc1O (centres undefined),inactive
16,COc1ccc(S(=O)(=O)N2CCN(C(=O)[C@@H]3CCCN3C(=O)c3cccs3)CC2)cc1,"inconclusive [inhibitor, single point]"
17,COCCCNC(=O)c1sc2nc3n(c(=O)c2c1C)CCC3,inactive
18,COc1ccc(C(=O)Nc2cc(C(F)(F)F)ccc2-n2cnc3ccccc32)cc1,"inconclusive [inhibitor, single point]"
19,CCN(CC(=O)Nc1c(F)cccc1F)C(=O)CSc1nc2ccccc2o1,inactive
